# In the antibiotic and cytotoxicity screens of Wong et al. (2023):
# The list shows a part of the results.
# Test system: HSkMC (human skeletal muscle cells)
# Assay: cytotoxicity call (relative viability < 0.9)
# Conditions: 10 µM
row,Structure (SMILES),cytotoxicity call
1,COc1ccccc1-c1ccc2c(c1)O[C@H](CN(C)C(=O)c1cccnc1)[C@H](C)CN([C@H](C)CO)S2(=O)=O,inactive
2,Cc1ccc(S(=O)(=O)N2C[C@H](O)COC[C@H]3O[C@@H](CC(=O)N4CCc5ccccc5C4)CC[C@@H]32)cc1,inactive
3,C[C@@H](CO)N1C(=O)[C@@H]2[C@H]3C(=O)OCC=C[C@H]3O[C@]23C=CCN(C(C)(C)C)C(=O)[C@@H]13,inactive
4,C[C@H](CO)N1C[C@H](C)[C@@H](CN(C)C(=O)Nc2ccnc(N3CCOCC3)c2)OCc2cnnn2CCCC1=O,inactive
5,COc1ccc(CN(C)C[C@@H]2OCCCC[C@H](C)Oc3ccc(NS(=O)(=O)c4ccccc4)cc3C(=O)N([C@@H](C)CO)C[C@H]2C)cc1,inactive
6,O=C(C[C@@H]1CC[C@H]2[C@@H](COC[C@H](O)CN2S(=O)(=O)c2ccccc2)O1)N[C@@H]1CCN(Cc2ccccc2)C1,inactive
7,COc1ccc(NC(=O)Nc2ccc3c(c2)C(=O)N([C@H](C)CO)C[C@H](C)[C@H](CN(C)Cc2ccc(Cl)c(Cl)c2)O3)cc1,inactive
8,COc1ccc(S(=O)(=O)N(C)C[C@@H]2Oc3ccc(NS(=O)(=O)c4cn(C)cn4)cc3C(=O)N([C@H](C)CO)C[C@@H]2C)cc1,inactive
9,Cc1ccc(S(=O)(=O)N(C)C[C@@H]2Oc3ccc(NS(=O)(=O)c4cccs4)cc3C(=O)N([C@@H](C)CO)C[C@H]2C)cc1,inactive
10,O=C(CCCCCNC(=O)OCc1ccc([C@H]2[C@H](C(=O)NCc3ccccc3)c3ccccc3C(=O)N2Cc2ccccc2)cc1)NO,inactive
